In all, about 52,000 compounds went through this assay and about 1,700 (3.3%) were called active. Cut-off read from the data, not from the text of the source: active = survival mostly below about 52% (no sharp cut-off); inactive = mostly above about 56%. The list shows a part of the results.
tested on: Wild type; experiment: growth inhibition of S. aureus wild type versus tarO mutant, primary screen, teichoic acid synthesis inhibitors, RN4220, OD600 (AID 463173); details: S. aureus RN4220 wild type/DeltatarO growth, OD600, 18 h, active compounds read low, screened at 18.75 µg/mL (by protocol)

SMILES	survival
CCOc1ccc(CCNC(=O)c2oc(=O)c3ccccc3c2-c2ccc(C)cc2)cc1OCC	inactive: 70%
Cc1ccc(NC(=O)CCS(=O)(=O)c2ccc(Br)s2)c(Br)c1	inactive: 92%
Cc1cc(=O)c2c(ccc3ccccc32)[nH]1	inactive: 110%
CCCc1ccc(OCC(=O)Nc2sc(C(=O)OCC)c(C)c2C(=O)OCC)cc1	inactive: 92%
CCc1ccccc1NS(=O)(=O)c1ccc2[nH]cc(C(=O)N(CC)Cc3ccccc3)c(=O)c2c1	inactive: 82%
CSc1ncc(C(=O)NCc2ccccc2F)c(-c2ccccc2)n1	inactive: 118%
Cc1ccc(C)c(N2CCN(S(=O)(=O)c3ccc4c(c3)C(C(C)C)C(=O)N4)CC2)c1 (centres undefined)	inactive: 84%
CCc1ccc(C2CC(=O)c3c([nH]c(C(=O)OC4CCCC4)c3C)C2)cc1 (centres undefined)	inactive: 92%
COc1cccc(-c2nc(CS(=O)(=O)CC(=O)N3CCN(c4cc(C)ccc4C)CC3)c(C)o2)c1	inactive: 65%
CC1CCN(CC(=O)Nc2ccc(S(=O)(=O)N3CCCCC3)cc2)CC1	inactive: 101%
CCOC(=O)c1ccc(CN(Cc2ccc(F)cc2)S(=O)(=O)c2ccc(F)c(C(=O)Nc3c(C)cccc3C)c2)cc1	inactive: 78%
COc1ccc(OC)c(C2CC(=O)Nc3c2c(=O)[nH]c2ncnn32)c1 (centres undefined)	inactive: 87%
COc1ccc(C2NC(=O)N(C)C3=C2C(=O)N(c2ccc(C(=O)O)cc2)C3)cc1 (centres undefined)	inactive: 72%
CCc1ccc2occ(CC(=O)Nc3c(C(=O)c4ccc(C)cc4)oc4ccccc34)c2c1	inactive: 87%
Cn1c(C(=O)Nc2ccccc2)cc2sccc21	inactive: 148%
CCOc1ccc(NC(=O)Cn2c(=O)n(CCCCCC(=O)NCc3ccccc3)c(=O)c3sccc32)cc1	inactive: 85%
Cc1ccc2c(CNCc3ccc(C)o3)c(C(=O)O)n(Cc3ccccc3C)c2c1	inactive: 55%
COc1ccc(S(=O)(=O)Nc2c(C)nc3nc[nH]n3c2=O)cc1	inactive: 129%
Cc1cc(C)nc(N(C#N)Cc2ccccc2)n1	inactive: 106%
Cc1cc(S(=O)(=O)C(CNC(=O)c2ccc(F)c(F)c2)c2cccs2)ccc1F (centres undefined)	inactive: 71%
Cc1cc(C)c2c(CC(=O)Nc3ccc(S(=O)(=O)Nc4nc(C)cc(C)n4)cc3)coc2c1	inactive: 77%
COc1ccc(CNC(=O)c2cc3cc(OC)ccc3oc2=O)cc1	inactive: 88%
CC(=O)N1CCCc2cc(S(=O)(=O)N3CCCC(C(=O)N4CCN(c5ccccc5)CC4)C3)ccc21 (centres undefined)	inactive: 70%

SMILES	survival
Cc1ccc(S(=O)(=O)n2nc(-c3ccc(Cl)cc3)nc2NCc2ccc(F)cc2)cc1	inactive: 74%
Cc1ccc(-c2ccc(=O)n(CC(=O)NCCc3ccccc3)n2)cc1	inactive: 65%
O=S(=O)(NCCc1csc2nc(-c3ccccc3)nn12)c1cc(F)ccc1F	inactive: 64%
COc1ccc2c(c1)cc1c(=O)n(CC(=O)NC(C)CCc3ccccc3)nc(C)n12 (centres undefined)	inactive: 131%
CCCCn1cnc2cc(NCc3ccccc3Cl)ccc21	active: -16%
COc1ccc(-c2[nH]c(-c3ccc(Cl)cc3)nc2SCC(=O)NCC2CCCO2)cc1 (centres undefined)	inactive: 68%
Cc1ccc(NC(=O)C(=O)NCC(c2cccnc2)N2CCN(Cc3ccccc3)CC2)cc1F (centres undefined)	inactive: 84%
COC(=O)CSc1nc(C(C)(C)C)cc(C(F)(F)F)n1	inactive: 112%
CCCSCCCNC(=O)C1CCN(c2nc3ccccc3nc2C(F)(F)F)CC1	active: -3%
Cc1ccc(-n2ncc3c(Nc4cccc(C(=O)O)c4)ncnc32)cc1	inactive: 67%
CC(Sc1ccccn1)C(=O)Nc1ccccc1 (centres undefined)	inactive: 110%
Cc1oc(-c2ccc(C(=O)NCc3ccccc3)cc2)nc1CN1CCc2ccccc21	inactive: 80%
COc1ccc(-c2nc3ccccc3s2)cc1NC(=O)c1ccccc1F	inactive: 138%
O=C(Cc1cccs1)NC1CC(=O)N(c2ccc(F)cc2)C1 (centres undefined)	inactive: 95%
CSc1cccc(NC(=O)Nc2ccccc2OCc2cc(=O)n3cc(C)ccc3n2)c1	inactive: 81%
CCOCCCNC(=O)c1ccc(-n2c(-c3ccccc3)cc3c2CCC(C)C3)cc1 (centres undefined)	inactive: 123%
COc1ccc(-c2csc3ncnc(Nc4cccc(OC)c4)c23)cc1	inactive: 73%
CC(C)(C)NC(=O)c1c(N)no[n+]1[O-]	inactive: 93%
Cc1ccc2c(c1)C(c1ccc(F)cc1)N(C(=O)c1ccc(S(=O)(=O)N3CCCCC3)cc1)CC(=O)N2 (centres undefined)	inactive: 148%
COc1ccc(C(=O)Nc2ccc3nc(SCC(=O)N4CCc5ccccc54)sc3c2)cc1	inactive: 69%
CCC(=O)N1CCc2cc(Br)cc(S(=O)(=O)CCC(=O)N3CCN(c4cccc(C)c4)C(C)C3)c21 (centres undefined)	inactive: 72%
CCc1ccc(S(=O)(=O)Nc2ccc3c(c2)n(C)c(=O)c(=O)n3C)cc1	inactive: 71%
COc1ccc(NC(=O)CCNS(=O)(=O)c2ccc3c(c2)CCCC(=O)N3)cc1Cl	inactive: 133%

SMILES	survival
O=C(NCc1ccc(Cl)cc1)NCc1noc2ccccc12	inactive: 86%
Oc1cccc(N=Cc2sc(=S)n(C3CCCCC3)c2O)c1	inactive: 135%
COc1ccc(-n2nc3cc(C)c(NC(=O)c4ccc(-c5ccc(Cl)cc5)o4)cc3n2)cc1	inactive: 78%
Cc1cc(OCC(=O)Nc2cc(-c3nc4ncccc4o3)ccc2C)ccc1Cl	inactive: 88%
COC(=O)c1ccccc1NC(=O)C1=CC(c2cccs2)=NS(=O)(=O)N1C	inactive: 81%
CCOc1ccc2nc(N3CCCC(C(=O)NCCc4ccc(OCC)c(OCC)c4)C3)sc2c1 (centres undefined)	inactive: 71%
Cc1cccc(C)c1Nc1c(-c2ccccn2)nc2c(C)cccn12	inactive: 77%
Cc1nn(CC(=O)Nc2ccc(OC(F)(F)F)cc2)c(=O)c2c(C)n(-c3ccc(Cl)cc3)nc12	inactive: 19%
CC1CCCN(S(=O)(=O)Cc2ccccc2)C1 (centres undefined)	inactive: 105%
COc1ccc(OCc2ccc(-c3nc(C#N)c(NC(C)c4ccccc4)o3)o2)cc1 (centres undefined)	inactive: 92%
Cc1ccc2c(=O)cc(-c3cccc(F)c3)oc2c1	inactive: 128%
COc1ccc(CCNC(=O)c2nc(-c3ccc(Cl)cc3)n3c2CCCCC3)c(OC)c1	inactive: 74%
NCCCC(=O)OC1CCCCC1	inactive: 104%
COc1ccc(N(Cc2cc3cccc(C)c3[nH]c2=O)C(=O)c2cccc(Cl)c2)cc1	inactive: 86%
CCc1cccc(-n2c(=O)c3cccnc3n2CC(=O)Nc2c(C)cc(C)cc2C)c1	inactive: 64%
COc1cc(S(=O)(=O)NCCc2c(C)[nH]c3ccccc23)c(C)cc1C	inactive: 50%
COc1ccc2nc(N(Cc3cccnc3)C(=O)Cc3ccccc3)sc2c1	inactive: 125%
Nc1nc(-c2ccccc2)nn1C(=O)c1cccs1	inactive: 104%
CC(=O)N1CCc2cc(S(=O)(=O)C(C)CC(=O)Nc3ccc(Br)c(C)c3)ccc21 (centres undefined)	active: -6%
CN(C)S(=O)(=O)c1ccc(C(=O)NCCSc2c(-c3ccccc3)[nH]c3ccccc23)cc1	inactive: 72%
On1c2c(c3c4nonc4ccc31)CCCC2	active: 8%
CC(=O)Nc1ccc(S(=O)(=O)NC2=NCN(CCO)CN2)cc1	inactive: 92%
Fc1cccc(-c2nnn3c2nc(NC2CCCCC2)c2ccccc23)c1	inactive: 85%

SMILES	survival
COc1ccc(NC(=O)C2=C(C)Nc3ncnn3C2c2cccn2C)cc1 (centres undefined)	inactive: 85%
CC(C)C(c1nnnn1C1CCCC1)N(Cc1ccc(Cl)cc1)CC1CCCO1 (centres undefined)	inactive: 114%
CC1CCN(CC2CCN(C(=O)Nc3ccc(Br)cc3F)CC2)CC1	inactive: 76%
Cc1cccc(-n2c(CNC(=O)c3cccc(F)c3)nnc2SCC(=O)Nc2ccccc2F)c1	inactive: 69%
O=C(C1CCN(S(=O)(=O)Cc2ccccc2)CC1)N1CCN(c2cccc(C(F)(F)F)c2)CC1	inactive: 88%
COc1ccccc1CNC(=O)CN1C(=O)COc2ccc(S(=O)(=O)NC3CCCC3)cc21	inactive: 80%
CCOC(=O)c1c(NC(=O)c2ccc(S(=O)(=O)N(C)C3CCCCC3)cc2)sc2c1CCN(C(C)C)C2	inactive: 66%
Cc1noc(C)c1S(=O)(=O)N(CC(=O)NCCc1ccccc1)c1ccc(C(C)C)cc1	inactive: 129%
CCc1ccc(C(=O)NCC2(c3ccccc3)CCOCC2)o1	inactive: 107%
Cc1ccc(Cl)cc1-n1ncc2c(N3CCN(Cc4ccccc4)CC3)ncnc21	inactive: 120%
CCOCCCN1C(=O)c2ccccc2CC1(C)C(=O)NC1CCCCC1 (centres undefined)	inactive: 82%
COc1ccc(CNC(=O)CN2C(=O)CSc3ccc(S(=O)(=O)N4CCC(C)CC4)cc32)cc1	inactive: 69%
COc1ccc(/C=C/C(=O)Nc2nc(-c3cccs3)ns2)cc1	inactive: 58%
CC1CCN(S(=O)(=O)c2nnc(NC(=O)c3cccc(Cl)c3)s2)CC1	inactive: 37%
Cc1ccc(CCNc2ncnc3onc(-c4ccc(Cl)cc4)c23)cc1	inactive: 66%
COc1ccc(NC(=O)CSc2nc3c(oc4ccccc43)c(=O)n2Cc2ccco2)cc1Cl	inactive: 131%
COc1cc(-c2nc(Cn3nnc(C(=O)Nc4cccc(Cl)c4)c3C)c(C)o2)cc(OC)c1OC	inactive: 96%
COc1ccc(CNC(=O)C2CCC(CNS(=O)(=O)c3ccc4c(c3)CCCC(=O)N4)CC2)cc1 (centres undefined)	inactive: 68%
Cc1ccc(-c2cn3c(n2)sc2cc(C(=O)NCCC4=CCCCC4)ccc23)cc1	inactive: 88%
COc1ccc(-c2nc(S(=O)(=O)c3ccc(Cl)cc3)c(NCc3ccccc3)o2)cc1	inactive: 137%
